PubChem BioAssay AID504339 (National Center for Advancing Translational Sciences (NCATS), 2011)
The campaign covered roughly 390,000 compounds. About 17,000 (4.4%) were called active. The inconclusive results got no clear call from the source; some entries with a clear call stand among them for comparison. Calls follow the shape of the dose curve; as a rule, active = well fitted inhibition curve with a large enough effect; inconclusive = small, poorly fitted or top-dose-only effect; inactive = no such curve, though single readings can be large or run the other way. Potencies beside an inconclusive call are fits to weak or partial responses and may not hold up.
Also: nearly all actives have a fitted effect of over 50% in size.
Potency is read from the fitted curve at half-maximal effect; tags tell the direction and shape of the fitted curve.

Each compound was assayed against Lysine-specific demethylase 4A (Homo sapiens) (UniProt O75164) (assay: qHTS Assay for Inhibitors of JMJD2A-Tudor Domain). Conditions: AlphaScreen JMJD2A-Tudor / H3K4me3 peptide binding; series mostly up to 114 µM.
Chain of UniProt O75164 (O75164 whole entry, looked up, the tested form may be a part): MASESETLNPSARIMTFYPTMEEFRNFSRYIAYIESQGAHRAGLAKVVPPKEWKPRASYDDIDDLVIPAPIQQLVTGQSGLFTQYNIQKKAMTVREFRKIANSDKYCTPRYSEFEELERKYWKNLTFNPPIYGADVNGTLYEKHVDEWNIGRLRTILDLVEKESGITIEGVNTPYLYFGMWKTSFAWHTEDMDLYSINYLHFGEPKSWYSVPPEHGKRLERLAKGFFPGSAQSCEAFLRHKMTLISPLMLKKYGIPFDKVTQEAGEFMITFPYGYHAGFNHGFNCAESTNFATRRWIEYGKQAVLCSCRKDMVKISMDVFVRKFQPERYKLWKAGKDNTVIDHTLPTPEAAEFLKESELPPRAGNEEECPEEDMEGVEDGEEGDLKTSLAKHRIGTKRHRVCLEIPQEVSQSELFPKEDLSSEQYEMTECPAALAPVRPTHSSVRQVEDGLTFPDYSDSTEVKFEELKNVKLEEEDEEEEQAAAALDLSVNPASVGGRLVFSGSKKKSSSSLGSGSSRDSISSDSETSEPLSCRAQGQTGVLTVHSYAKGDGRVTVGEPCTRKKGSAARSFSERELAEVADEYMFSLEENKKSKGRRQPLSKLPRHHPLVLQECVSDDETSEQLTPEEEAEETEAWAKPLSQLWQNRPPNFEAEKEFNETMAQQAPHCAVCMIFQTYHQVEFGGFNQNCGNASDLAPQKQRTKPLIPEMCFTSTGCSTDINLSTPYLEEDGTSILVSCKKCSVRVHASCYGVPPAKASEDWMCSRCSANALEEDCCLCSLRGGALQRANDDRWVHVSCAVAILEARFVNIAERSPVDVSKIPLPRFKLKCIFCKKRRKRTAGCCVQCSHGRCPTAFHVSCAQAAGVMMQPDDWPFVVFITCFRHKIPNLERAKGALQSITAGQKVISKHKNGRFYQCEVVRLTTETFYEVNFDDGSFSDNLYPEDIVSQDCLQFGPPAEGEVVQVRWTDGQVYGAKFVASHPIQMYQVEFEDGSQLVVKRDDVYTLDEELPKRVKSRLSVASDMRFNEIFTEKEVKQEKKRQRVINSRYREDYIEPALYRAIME
For `Cc1ccc(SCC(=O)NCCN2C(=O)CSC2=O)cc1C`, the Potency was “inactive”.
With `O=C1c2ccccc2CCc2ccccc21` the Potency was “inactive”.
For `Cc1ccc(N(C(C)C(=O)Nc2ccc3c(c2)OCO3)S(C)(=O)=O)cc1` (stereo unspecified), the Potency was inconclusive: 3.55 µM [inhibitor, single point].
For `CCOC(=O)C1CCN(C(=O)CCc2nnc3ccc(N4CCN(C)CC4)nn23)CC1`, the Potency was “inactive”.
In the case of `COc1ccc(O)c(C(=O)c2cnn(S(=O)(=O)c3ccc(C)cc3)c2)c1`, the Potency is reported as inconclusive: 28.2 µM [inhibitor, partial curve].
For `CCC(=O)OC1(C)C(=O)C=C2C=C(c3ccsc3)OC=C2C1=O` (stereo unspecified), the Potency was active: 28.2 µM.
With `CCn1nc(CC(=O)Nc2ccc(-n3cnnn3)c(OC)c2)c2ccccc2c1=O` the Potency was inconclusive: 39.8 µM [inhibitor, single point].
For `COc1ccc(CCNC(=O)c2ccc(Cn3c(=O)c4ccccc4n(Cc4cccc(F)c4)c3=O)cc2)cc1OC`, the Potency was “inactive”.
`NC(=O)C[n+]1cccc(C(N)=O)c1` was tested, and the Potency was inconclusive: 0.316 µM [inhibitor, full curve].
In the case of `COc1ccc(CNc2ccc3c(c2)ncn3-c2ccccc2OC)cc1`, the Potency is reported as active: 28.2 µM.
With `CCOC(=O)c1[nH]c2ccccc2c1NC(=S)Nc1cccc(C)c1` the Potency was inconclusive: 100 µM [inhibitor, partial curve].
For `CCOC(=O)CCCN1CC(O)=C(c2nc(-c3ccc(Cl)cc3)cs2)C1=N`, the Potency was inconclusive: 89.1 µM [inhibitor, single point].
In the case of `S=c1[nH]ccn1CCc1ccccc1`, the Potency is reported as inconclusive: 7.94 µM [inhibitor, full curve].
`CCOc1ccc(OCCOCCN2CCc3ccccc3C2)cc1` was tested, and the Potency was active: 2.82 µM.
With `CC1=Nc2cc(C(=O)N3CCC(C)CC3)ccc2Sc2ccc(Cl)cc21` the Potency was inconclusive: 39.8 µM [inhibitor, partial curve, poor fit].
For `CC(C)/C=N/Nc1nc(-c2ccc(Br)cc2)cs1`, the Potency was “inactive”.
`CC(=O)/C(=N/Nc1ccc(C)cc1)Sc1nnc(CCc2ccccc2)n1-c1ccccc1` was tested, and the Potency was inconclusive: 8.91 µM [inhibitor, partial curve].
With `O=C(C1CCCN(Cc2cccnc2)C1)N1CCCCC1` (stereo unspecified) the Potency was inconclusive: 0.891 µM [inhibitor, full curve, poor fit].
With `CCc1cc(-c2n[nH]c(C)c2Oc2ccc(C(C)C)cc2)c(O)cc1O` the Potency was inconclusive: 56.2 µM [inhibitor, partial curve].
For `Cc1cc(C)c2c(n1)sc1c(-c3ccccc3)c(C#N)c(N)nc12`, the Potency was inconclusive: 35.5 µM [inhibitor, single point].
In the case of `Cc1cc(C)c(C#N)c(SCc2[nH]nc3c2C(c2ccccc2)C(C#N)=C(N)O3)n1` (stereo unspecified), the Potency is reported as inconclusive: 56.2 µM [inhibitor, partial curve].
In the case of `CC(C)Cc1ccc(CN2CCCC(NC(=O)c3cnc4ccccn4c3=O)C2)cc1` (stereo unspecified), the Potency is reported as inconclusive: 50.1 µM [inhibitor, partial curve].
`COc1ccc([C@H]2CC(=O)C=C(c3ccc(Oc4ccccc4)cc3)C2)cc1OC` was tested, and the Potency was inconclusive: 44.7 µM [inhibitor, partial curve].
For `COc1ccc2cc(-c3cc(C(=O)O)c4ccccc4n3)ccc2c1`, the Potency was “inactive”.
`Cc1ccc(C(=O)CCC(=O)NCc2ccccc2)cc1` was tested, and the Potency was “inactive”.
`COc1ccc(N2CCN(C(=O)NC34CC5CC(CC(C5)C3)C4)CC2)cc1` was tested, and the Potency was inconclusive: 31.6 µM [inhibitor, full curve, poor fit].
In the case of `CCN1C(=O)[C@@H]2[C@@H](c3ccc(-c4cccc(Cl)c4)c(OC)c3)N3CCCC[C@@]3(C(=O)OC)[C@@H]2C1=O`, the Potency is reported as “inactive”.
`Cc1c(NC(=O)c2cn3ccccc3n2)cccc1-n1cnnn1` was tested, and the Potency was active: 20 µM.
`COc1ccc(-c2n[nH]c3c2cnc2ccc(F)cc23)cc1` was tested, and the Potency was “inactive”.
With `N/C(=N\OS(=O)(=O)c1ccccc1)c1ccccn1` the Potency was active: 3.55 µM.
In the case of `COc1cccc(NS(=O)(=O)c2cc(C)ccc2OC)c1`, the Potency is reported as inconclusive: 28.2 µM [inhibitor, single point].
`Cc1csc(Sc2ccc([N+](=O)[O-])cc2C(=O)OCC(=O)NC(=O)NC(C)(C)C)n1` was tested, and the Potency was inconclusive: 50.1 µM [inhibitor, partial curve].
With `CC1CCc2c(sc(NC(=O)CSc3ncn[nH]3)c2C#N)C1` (stereo unspecified) the Potency was “inactive”.
With `CC(=O)N1CCc2cc(S(=O)(=O)NC(Cc3ccccc3)C(=O)Nc3cc(C)ccc3C)ccc21` (stereo unspecified) the Potency was “inactive”.
In the case of `O=C(/C=C/c1ccc(OC2CSC2)cc1)c1ccccc1`, the Potency is reported as inconclusive: 11.2 µM [inhibitor, partial curve].
With `COc1ccc(C(=O)CSc2n[nH]c(N)n2)cc1` the Potency was active: 56.2 µM.
In the case of `O=C(O)/C=C/c1cn(-c2ccccc2)nc1-c1ccc(-c2ccc([N+](=O)[O-])cc2)o1`, the Potency is reported as active: 44.7 µM.
With `COc1ccc(NC(=O)CSc2nc3sc(C)cc3c(=O)n2C)c(OC)c1` the Potency was inconclusive: 17.8 µM [inhibitor, full curve].
`CCCCN(C)CCC(=O)Nc1ccc(C)cc1` was tested, and the Potency was “inactive”.
For `COc1ccc(NC(=O)CN(c2ccccc2)S(=O)(=O)N(C)C)cc1OC`, the Potency was inconclusive: 44.7 µM [inhibitor, partial curve].
With `COc1ccc(CN(Cc2ccccc2)C(=O)c2ccccc2O)cc1COc1ccc(NC(C)=O)cc1` the Potency was inconclusive: 56.2 µM [inhibitor, partial curve].
In the case of `COc1ccc(-c2cc(-c3ccco3)[nH]c(=O)c2C#N)cc1OC`, the Potency is reported as inconclusive: 79.4 µM [inhibitor, single point].
With `O=C(Nn1cc(C(=O)Nc2ccc(F)cc2F)c2ccccc2c1=O)c1cnccn1` the Potency was active: 35.5 µM.
`Cn1c(CNC(=O)c2ccccc2)nnc1SCC(=O)Nc1nccs1` was tested, and the Potency was active: 11.2 µM.
For `c1cnc(N2CCN(c3ncc4c(n3)CCNC4)CC2)nc1`, the Potency was inconclusive: 89.1 µM [inhibitor, single point].
In the case of `COc1ccc2cc(C(=O)C3CCCN(Cc4cccc(C)n4)C3)ccc2c1` (stereo unspecified), the Potency is reported as inconclusive: 25.1 µM [inhibitor, partial curve].
`Cc1cc(C)c(OCCOCCN2CCN(C)CC2)c(Cl)c1` was tested, and the Potency was active: 1.58 µM.
For `Cc1ccc2[nH]c3c(c2c1)CCc1cn[nH]c1-3`, the Potency was inconclusive: 56.2 µM [inhibitor, partial curve].
`Cc1cc2cc(CNC(=O)c3cccc([N+](=O)[O-])c3)ccc2[nH]1` was tested, and the Potency was inconclusive: 56.2 µM [inhibitor, partial curve].
`Cc1cccc(C(=O)NCc2nnc(SC(C)C(=O)Nc3nnc(C)s3)n2C)c1` (stereo unspecified) was tested, and the Potency was inconclusive: 28.2 µM [inhibitor, partial curve].
With `Cc1cccc(N=Cc2c(O)cc(C)oc2=O)c1` the Potency was “inactive”.
`COc1ccc(/C=N/Nc2ncnc3c2[nH]c2ccc(C)cc23)c(OC)c1OC` was tested, and the Potency was inconclusive: 7.94 µM [inhibitor, partial curve, poor fit].
For `CC(C)CC(=O)Nc1ccc(C(=O)COC(=O)CN2C(=O)NC3(CCCCC3C)C2=O)cc1` (stereo unspecified), the Potency was inconclusive: 56.2 µM [inhibitor, partial curve, poor fit].
With `O=C(NCC(c1cccs1)S(=O)(=O)c1cccs1)c1cccc(F)c1` (stereo unspecified) the Potency was “inactive”.
For `O=Nc1c(O)ccc2cc(S(=O)(=O)O)ccc12`, the Potency was active: 2.82 µM.
With `Cc1cccc(N2C(=O)CC(Sc3ncn[nH]3)C2=O)c1` (stereo unspecified) the Potency was inconclusive: 22.4 µM [inhibitor, full curve, poor fit].
With `Cc1ccc(CN2CCN(Cc3cccn3-c3ccccn3)CC2CCO)o1` (stereo unspecified) the Potency was “inactive”.
For `CCNC(=O)CCn1nc(-c2ccc(C)cc2)c2ccccc2c1=O`, the Potency was inconclusive: 17.8 µM [inhibitor, full curve].
With `O=C(CCNC(=O)c1ccco1)Nc1nc(-c2ccccc2)cs1` the Potency was inconclusive: 39.8 µM [inhibitor, partial curve, poor fit].
For `O=C(CSc1nnc(CCc2ccccc2)n1-c1ccc(Cl)cc1)c1ccccc1`, the Potency was “inactive”.
For `CCOc1ccc(CCNC(=O)c2sc3ncccc3c2-n2cccc2)cc1OCC`, the Potency was inconclusive: 63.1 µM [inhibitor, partial curve].
For `COc1ccc(Cl)cc1C(=O)NNC(=S)NC(=O)c1cc(-c2ccccc2)nc2ccccc12`, the Potency was inconclusive: 79.4 µM [inhibitor, partial curve].
In the case of `O=C(CCC1N=C2c3ccccc3N=C(SCc3cccc(F)c3)N2C1=O)NCc1cccs1` (stereo unspecified), the Potency is reported as active: 79.4 µM.
In the case of `Cc1cccc(NC(=O)C(=O)NCC(c2cccnc2)N2CCc3ccccc3C2)c1C` (stereo unspecified), the Potency is reported as inconclusive: 56.2 µM [inhibitor, partial curve, poor fit].
In the case of `Cc1oc(/N=C/c2cccc3ccccc23)c(C#N)c1C`, the Potency is reported as active: 35.5 µM.
For `Cc1cccc(C)c1-c1ccc(CN2C(CC(C)C)C(=O)N(Cc3cn(CC4CCCCC4)nn3)CCS2(=O)=O)cc1` (stereo unspecified), the Potency was “inactive”.
In the case of `O=C(Cc1cccs1)N=Nc1c(O)[nH]c2ccc(Br)cc12`, the Potency is reported as inconclusive: 56.2 µM [inhibitor, partial curve].
For `CCOC(=O)c1nnc(-c2ccccc2)nc1Sc1ccccc1Cl`, the Potency was inconclusive: 89.1 µM [inhibitor, partial curve].
`O=C(CN1CCCC1c1cccs1)Nc1cc(S(=O)(=O)N2CCCC2)ccc1Cl` (stereo unspecified) was tested, and the Potency was “inactive”.
For `COc1ccc(N(Cc2ccccc2)S(=O)(=O)c2cc(C(=O)O)ccc2Cl)cc1`, the Potency was inconclusive: 0.631 µM [inhibitor, full curve, poor fit].
In the case of `COc1ccc(OC)c(/C=C2/Sc3ccccc3C2=O)c1`, the Potency is reported as inconclusive: 70.8 µM [inhibitor, partial curve, poor fit].
